# According to the supplement of paper PMC3334620:
# In all, about 33,000 sequences were measured (“E-score (-0.5 to 0.5)”: median about -0.012, highest 2% from about 0.27 on). Some of the results follow.
# Target: T1, Vhr1 (UniProt P40522)
# T1 sequence: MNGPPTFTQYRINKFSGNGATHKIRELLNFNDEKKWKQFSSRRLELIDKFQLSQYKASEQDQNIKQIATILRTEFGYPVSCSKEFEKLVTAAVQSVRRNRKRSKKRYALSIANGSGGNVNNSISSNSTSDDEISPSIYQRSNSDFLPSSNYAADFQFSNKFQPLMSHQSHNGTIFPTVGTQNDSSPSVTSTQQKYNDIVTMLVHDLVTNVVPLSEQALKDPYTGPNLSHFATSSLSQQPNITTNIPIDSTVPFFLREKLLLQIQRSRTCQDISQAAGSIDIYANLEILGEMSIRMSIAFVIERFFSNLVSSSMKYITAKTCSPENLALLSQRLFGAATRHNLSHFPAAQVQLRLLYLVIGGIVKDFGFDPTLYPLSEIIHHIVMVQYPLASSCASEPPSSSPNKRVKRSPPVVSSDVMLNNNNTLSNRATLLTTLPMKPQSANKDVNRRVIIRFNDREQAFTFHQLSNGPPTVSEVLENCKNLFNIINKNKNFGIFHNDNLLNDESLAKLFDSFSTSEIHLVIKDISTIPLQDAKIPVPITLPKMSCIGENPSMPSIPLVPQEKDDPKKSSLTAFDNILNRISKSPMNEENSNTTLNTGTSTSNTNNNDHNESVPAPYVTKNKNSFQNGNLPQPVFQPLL
# Assay: PBM E-score (8-mer binding enrichment) (E-score (-0.5 to 0.5)); higher = stronger / more preferred TF binding; most listed sequences are background and not binding sites
# Settings: protein concentration: 200 nM; construct: GST-full length
# In short: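 Yeast transcription factors carrying a GST tag, as full-length proteins or DNA-binding domains, were produced by PURExpress in vitro transcription/translation. About 100-200 nM protein was applied to universal all-10-mer Agilent arrays, double-stranded by primer extension on fresh or once-stripped slides. Bound protein was detected with fluorescent anti-GST, and scans were normalised with masliner. The Universal PBM Analysis Suite gave each ungapped eight-base word, pooled with its reverse complement, an E-score, a modified Wilcoxon-Mann-Whitney statistic.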
row,Sequence,PBM E-score
1,CTCCACCA,0.0478
2,GGTCTAAA,-0.0427
3,ACTTTCTA,-0.231
4,GAAACAAC,-0.164
5,CGAGCTGC,0.126
6,GGACCAGA,-0.123
7,CGAGTTGA,0.0202
8,GCACGGAA,0.0156
9,GCGCATCA,0.0373
10,AAAAGGGC,-0.0413
11,AGGTAGAA,-0.0422
12,CAGCTTAC,0.00232
13,ATCGTACC,0.0367
14,AAGTCCAA,-0.304
15,CACGCAAA,0.0383
16,AATTTCCA,-0.0561
17,GGTAGGCA,-0.0869
18,AAAGGTGC,-0.162
19,GGGACTAA,-0.209
20,AGCTGCTC,-0.137
21,TAGTGAAA,-0.0264
22,CGTACTAG,0.0261
23,GGACCTTA,-0.232
24,CCCTAGGC,-0.149
25,ATGACCGA,-0.0105

row,Sequence,PBM E-score
1,CTACCCGA,-0.00582
2,AGAGGCGG,0.0282
3,AAACTCTG,-0.0552
4,CGGGCACC,0.0253
5,AAAAGTTC,-0.284
6,ATTTTCTA,-0.0622
7,GGTACCAA,-0.037
8,GTTAGTTA,0.137
9,AATAGATG,0.0664
10,CGTGCTGC,0.0243
11,GCCGAGCC,0.00377
12,ACACTCGA,0.149
13,CACTGTCC,-0.0625
14,AACTGATA,0.171
15,CTGCAACC,0.0785
16,CATTTGAA,-0.0815
17,CTCTCCGC,-0.0827
18,GTACTTTA,-0.11
19,CCCAGCCG,-0.064
20,CCGCTGGC,0.00791
21,GAAACACC,0.215
22,CATAAGGG,0.039
23,GCCCACTA,-0.0173
24,AGCCTATA,-0.0617
25,AGTCCCCG,0.0704

row,Sequence,PBM E-score
1,AGTGAGAT,0.168
2,AATTGATC,-0.0596
3,CCCTTGCG,-0.156
4,ATGCGTAA,-0.0945
5,TATACCCA,0.0126
6,CGCAAGTC,-0.0294
7,AGTGTATC,0.169
8,AGGGTCGG,0.00426
9,AGAGCACT,-0.0529
10,CGGGTATA,0.0977
11,CCCAGCTA,-0.0293
12,GCTCATCC,0.0555
13,AAACCGCC,0.156
14,CGCACGTA,-0.0929
15,ACGCCCCC,-0.143
16,CAGACGTA,-0.13
17,GACCAAGA,-0.00356
18,TTCACAAA,-0.203
19,CAGGGATA,-0.0757
20,ACCATTTA,0.0419
21,CTGCGGTA,0.129
22,CCAATGCG,-0.066
23,GTTGAAGA,-0.13
24,TTACCTAA,-0.0877
25,GAATATTA,0.212

row,Sequence,PBM E-score
1,GGGCGTAC,-0.0693
2,AGACGACA,-0.0527
3,ACCATAAG,-0.127
4,ATATCTGA,0.15
5,GAGATTGA,-0.0632
6,CATTCCCA,-0.0756
7,ATGCCGCA,-0.0531
8,ACCTGGAA,0.059
9,ATTCTAAG,-0.137
10,AATGTCTC,0.137
11,AACAATGA,0.0764
12,CCCTCCCC,0.253
13,GAAGAGGA,-0.197
14,ACTCTTCT,-0.00346
15,AGGTCCGA,0.0653
16,CTAGCTCC,-0.0863
17,CCTCAAAC,0.0109
18,CCACCCCG,0.206
19,AGGGACAG,-0.195
20,CGCCCAAC,0.169
21,CAATGCGA,0.159
22,ACCGCTGG,-0.0773
23,CCCGCGCC,0.12
24,AATTAGCG,0.0239
25,AGAACGTA,0.00487

row,Sequence,PBM E-score
1,ACTTCCAG,-0.171
2,AGTAGCCG,-0.0858
3,AGAGTAAT,0.0347
4,TCATTGCA,0.0595
5,TCTCAACA,0.113
6,GAACTCGC,0.0069
7,ACAGGTAG,-0.108
8,AGCAAGGA,-0.0877
9,AAAGTCAT,0.256
10,AGCCATTG,0.172
11,AGATCCAC,0.0604
12,AATGTGAC,0.0641
13,GAGCGGAA,0.0965
14,CACGAGGG,-0.139
15,AGGACTAA,0.054
16,CAACGGCC,-0.0818
17,AAGTGTAA,-0.173
18,ACTCACTG,0.265
19,AACAACAA,0.254
20,AAACGCGC,0.00387
21,CGTGTGCA,0.0256
22,CACCCGTC,0.0428
23,CAAGTGGG,-0.0449
24,AAATGACT,0.207
25,GCAGGTTA,-0.0603

row,Sequence,PBM E-score
1,TACTGCTA,-0.0244
2,ATCTGCTC,-0.111
3,AAACACAT,0.252
4,AGGGCCCT,-0.156
5,TGGAGCAA,0.0648
6,AGAATAGC,-0.00175
7,ATCCTCGG,0.021
8,AGTCGTAC,0.226
9,CCCAATAA,0.0108
10,ACGAGGGG,-0.0837
11,GCGTTGAC,0.00037
12,ATCAGACG,0.0204
13,ACTGCGGG,0.0914
14,GCTTATAC,-0.0258
15,AGAGAGTA,-0.088
16,TCTGGAAA,0.0756
17,CCCAGGTA,-0.0389
18,CCCCTCGA,0.0954
19,CAATGGGC,0.0284
20,CGTGGAGA,-0.0535
21,ACGATTCG,0.0532
22,GGCTTAAC,-0.0218
23,ATGAGCGG,-0.0573
24,GAGGCAAC,-0.172
25,AAGGGATG,-0.0979

row,Sequence,PBM E-score
1,CGCTGCTA,-0.127
2,TCCACCGA,0.127
3,ACGTCCAA,-0.158
4,GTTGGTAA,0.0661
5,AATAGCCA,0.0231
6,GTTGCAAA,-0.0878
7,AATTAATC,0.145
8,CTGCATGC,0.14
9,AGGGTCTC,-0.116
10,CTCCGCGC,0.104
11,GATCTCAC,0.0664
12,TCTCGTCA,-0.0493
13,ATCTATGC,0.0795
14,CCGACTAA,0.129
15,AAGATCAA,-0.09
16,GACACTAA,0.125
17,CGCGATAG,-0.014
18,AAACGCAC,0.142
19,GAGAACTC,0.0378
20,AACAGCCC,-0.148
21,ATCGTACG,0.129
22,AGTGCCTC,-0.241
